Measurements: PubChem BioAssay AID588855 (National Center for Advancing Translational Sciences (NCATS), 2011)
Among all 410,000 compounds or so, about 5,000 (1.2%) were called active. The inconclusive results got no clear call from the source; some entries with a clear call stand among them for comparison. The call rests on the fitted dose curve; in most records, active means well fitted inhibition curve with a large enough effect; inconclusive means small, poorly fitted or top-dose-only effect; inactive means no such curve, though single readings can be large or run the other way. Where the call is inconclusive, the potency comes from a doubtful curve fit.

Assay: qHTS for Inhibitors of TGF-b; further: nearly all actives have a fitted effect of over 65% in size
Conditions: HepG2 CAGA-GFP TGF-b/SMAD3 reporter, GFP fluorescence, 18 h, TGF-beta stimulated, 500 pg/mL final; series mostly up to 46.1 µM; activity, negative = inhibition: at the top concentration
Outline: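 Smad-responsive CAGA-GFP expression was quantified in HEPG2 cells exposed to compounds and 500 pg/mL final TGF-beta for 18 h at 37 degrees C; unstimulated wells defined full inhibition.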
On the % scale 0 is the no-effect control and ±100 the full control effect; potency means the concentration at half of the fitted maximal effect; tags describe the fitted curve by direction and shape.

| Compound | Potency | activity, negative = inhibition |
| --- | --- | --- |
| CC(C)C[C@H]1CNC(=S)N1CC1CCN(CCCC2CCCC2)CC1 | inconclusive: 22.4 µM [inhibitor, single point] |  |
| CC(C(=O)NCCC1=CCCCC1)c1ccc([N+](=O)[O-])cc1 (configuration not stated) |  | inactive: -11.1% |
| CCCc1c(C(=O)N/N=C/C(C)=C/c2ccccc2)nnn1-c1nonc1N |  | inactive: 7.3% |
| COc1ccc(NS(=O)(=O)c2ccc(C(=O)N3CCN(c4ccc(F)cc4)CC3)cc2)cc1 | inconclusive: 22.4 µM [inhibitor, single point] |  |
| Nc1nc(Sc2ccc([N+](=O)[O-])c3nonc23)c2[nH]cnc2n1 | inconclusive: 1.58 µM [inhibitor, full curve, poor fit] |  |
| Cc1ccc2c(C)c(C(=O)N3CCN(Cc4ccc5c(c4)OCO5)CC3)oc2c1C | inconclusive: 20 µM [inhibitor, single point] |  |
| O=C1OCC2=C1C(c1ccc(F)cc1)Sc1ccccc1N2 (configuration not stated) |  | inactive: 7.95% |
| CCN(CC)C(=S)NC(=O)c1ccc(OC)c(Br)c1 |  | inactive: 21.5% |
| CCOc1ccc(CNC(=S)N/N=C\c2ccc([N+](=O)[O-])cc2)cc1 | inconclusive: 35.5 µM [inhibitor, single point] |  |
| Cc1no[n+]([O-])c1COc1ccccc1/C=C1\NC(=S)NC1=O | inconclusive: 3.98 µM [inhibitor, full curve, poor fit] |  |
| CCOCCc1nn2c(=O)cc(COC(=O)c3ccc(NC(=O)C(C)(C)C)cc3)nc2s1 |  | inactive: -4.81% |
| CCOc1cc(/C=N/NC(=O)c2ccccn2)ccc1OC(=O)c1ccc(F)cc1 |  | inactive: 2.82% |
| Cn1nnnc1Sc1ncnc2scc(-c3ccc([N+](=O)[O-])cc3)c12 | active: 12.6 µM |  |
| CCc1cccc(C)c1NC(=O)c1cnn(-c2ccc(OC)cc2)c1C1CCN(C(=O)OC(C)(C)C)CC1 | inconclusive: 2.82 µM [inhibitor, partial curve, poor fit] |  |
| COCc1ccc(O)c2ncccc12 | active: 1.58 µM |  |
| CC(=O)c1ccc(Nc2nc3ccccc3nc2NS(=O)(=O)c2cccs2)cc1 |  | inactive: -5.13% |
| FC(F)(F)c1cccc(N2CCN(C(=S)NC3CCCCC3)CC2)c1 | inconclusive: 22.4 µM [inhibitor, single point] |  |
| S=c1nc(C23CC4CC(CC(C4)C2)C3)[nH][nH]1 |  | inactive: -4.59% |
| CCOc1ccc(S(=O)(=O)N2CCC(C(=O)NC3CCCCC3)CC2)cc1 |  | inactive: 3.35% |
| CC(C)Oc1ccc(/C=N/NC(=O)c2nnn(-c3nonc3N)c2CN(C)c2ccccc2)cc1 | inconclusive: 35.5 µM [inhibitor, partial curve, poor fit] |  |
| CCCCNC(=S)NNC(=O)c1csc2ccccc12 |  | inactive: -23.6% |
| Cc1ccc(C)c(-n2nnc(C(=O)Nc3ccc(Br)cc3)c2C)c1 | inconclusive: 5.01 µM [inhibitor, full curve, poor fit] |  |
| CCN1CCCC1CNC(=O)c1cc(N)ccc1OC (configuration not stated) |  | inactive: -2.12% |
| CCSc1nc2c(c(=O)[nH]1)C(c1cccnc1)C(C(=O)OC)=C(C)N2 (configuration not stated) | inconclusive: 4.47 µM [inhibitor, single point] |  |

| Compound | Potency | activity, negative = inhibition |
| --- | --- | --- |
| Cc1ccc(S(=O)(=O)NNC(=O)C2CCN(Cc3ccccc3)CC2)cc1 |  | inactive: 2.8% |
| NS(=O)(=O)c1cccc(NC(=O)COC(=O)CCc2ccccc2)c1 |  | inactive: 13.9% |
| CC(C)(C)C(=O)N1CCN(c2ccc3c(c2)C2CC3CCN2C(=O)OCc2ccccc2)CC1 (configuration not stated) | inconclusive: 20 µM [inhibitor, partial curve, poor fit] |  |
| COc1cccc(NC(=O)Cc2csc(COc3cccc(C)c3)n2)c1 |  | inactive: -13.2% |
| COc1ccc(-c2ccc(-c3noc(-c4cccc(OC)c4)n3)c(OC)n2)cc1 |  | inactive: 0.106% |
| O=C(NC(=S)Nc1ccc(Cc2ccncc2)cc1)c1ccccc1F | inconclusive: 14.1 µM [inhibitor, partial curve, poor fit] |  |
| Cc1ccc(NC(=O)CSc2ccc3c(c2)OCCO3)nc1 | inconclusive: 35.5 µM [inhibitor, single point] |  |
| COc1cc(NC(C)CCCN)c2ncccc2c1 (configuration not stated) | inconclusive: 22.4 µM [inhibitor, single point] |  |
| Cc1cn2c(=O)cc(COC(=O)c3ccc(NC(=O)C(C)Oc4ccccc4)cc3)nc2s1 (configuration not stated) | inconclusive: 0.794 µM [inhibitor, partial curve, poor fit] |  |
| O=C(Nc1ccc2ccccc2c1)C(c1ccccc1)C1CCCC1 (configuration not stated) | inconclusive: 15.8 µM [inhibitor, single point] |  |
| COc1ccc(-n2c(=O)c3c4c(sc3n(Cc3ccc(C(C)(C)C)cc3)c2=O)CCC4)c(OC)c1 |  | inactive: -2.97% |
| CN1C(=O)C2(NCCc3c2[nH]c2ccccc32)c2ccccc21 (configuration not stated) | inconclusive: 20 µM [inhibitor, single point] |  |
| COc1ccc(CC2=CC(=O)c3ccccc3C2=O)cc1 | inconclusive: 20 µM [inhibitor, single point] |  |
| CCOc1ccc(S(=O)(=O)n2ccc(C)n2)c2ccccc12 |  | inactive: -24.2% |
| Cc1ccnc(NC(c2ccsc2)c2ccc3ccc(C)nc3c2O)c1 (configuration not stated) | inconclusive: 31.6 µM [inhibitor, single point] |  |
| CCOc1ccc(Br)cc1S(=O)(=O)Nc1cccc(-c2ccc(OC)nn2)c1 | inconclusive: 11.2 µM [inhibitor, partial curve] |  |
| COC1=C(N)C(=O)c2nc(-c3nc(C(=O)O)c(C)c(-c4ccc(OC)c(OC)c4O)c3N)ccc2C1=O | active: 0.282 µM |  |
| COc1ccc(NC(=O)c2c(C)oc3ccc(O)c(CN4CCCCCC4)c23)cc1 |  | inactive: -25.5% |
| Cc1csc(NC(=O)c2cncc(Br)c2)n1 | inconclusive: 0.794 µM [inhibitor, full curve, poor fit] |  |
| Cc1cc2c(c(C)c1Br)C(c1ccc3c(c1)OCO3)CC(=O)O2 (configuration not stated) | active: 20 µM |  |
| C=C1C[C@H](O)[C@@H]2[C@H](OC(=O)[C@H]2C)[C@H]2[C@H](C)[C@@H](O)C[C@@H]12 | inconclusive: 1.12 µM [inhibitor, full curve] |  |
| N/C(=N\OC(=O)CCCOc1ccccc1)c1ccc(Br)cc1 | inconclusive: 12.6 µM [inhibitor, single point] |  |
| Cc1ccc(-c2ccc(CCC(=O)O)n2-c2cccc(C)c2C)cc1 | inconclusive: 17.8 µM [inhibitor, single point] |  |
| CC(C)OCCCNC(=S)Nc1ccc(S(N)(=O)=O)cc1 |  | inactive: 5.31% |

| Compound | Potency | activity, negative = inhibition |
| --- | --- | --- |
| COc1ccc(C(=O)c2c(C)oc3cc([N+](=O)[O-])c(O)c([N+](=O)[O-])c23)cc1 | inconclusive: 14.1 µM [inhibitor, single point] |  |
| OCc1nc2nc(Cl)c(Cl)nc2[nH]1 | inconclusive: 11.2 µM [inhibitor, partial curve] |  |
| Cc1ccccc1OCc1nc2ccccc2c(=O)n1/N=C/c1cn[nH]c1-c1ccc(Br)cc1 |  | inactive: 1.76% |
| COc1ccccc1CNC(=O)CSc1nc(=O)[nH]c2c1CCCC2 |  | inactive: 16.3% |
| c1cnc2ccc3c(c2c1)COCO3 |  | inactive: -8.09% |
| N#CCCn1cc(C(=O)CN2C(=O)NC3(CCCCCC3)C2=O)c2ccccc21 | inconclusive: 0.794 µM [inhibitor, full curve, poor fit] |  |
| S=C(NCCCN1CCOCC1)NN=C1c2ccccc2-c2ccccc21 | inconclusive: 7.08 µM [inhibitor, partial curve, poor fit] |  |
| C/C(N)=C(/C#N)C(=O)CSc1nc2cc(Cl)ccc2c(=O)n1Cc1ccco1 |  | inactive: 14.2% |
| COc1ccc2c(c1)sc1nc(-c3ccccc3)cn12 | active: 10 µM |  |
| c1cncc(-c2nc(NCc3ccc4c(c3)OCO4)c3ccccc3n2)c1 | inconclusive: 22.4 µM [inhibitor, single point] |  |
| O=[N+]([O-])c1ccc(C(O)C(CO)NC(=S)Nc2ccccc2)cc1 (configuration not stated) |  | inactive: 8.86% |
| C=CCN(CC=C)C(=O)COC(=O)c1n[nH]c2ccccc12 | inconclusive: 6.31 µM [inhibitor, single point] |  |
| O=C(Nc1ccccc1)c1ccc(Nc2c([N+](=O)[O-])cc([N+](=O)[O-])c3ccccc23)cc1 |  | inactive: 0% |
| O=C(CSc1nc(=O)n(Cc2ccco2)c2c1CCC2)NCc1ccc(Cl)cc1 | inconclusive: 22.4 µM [inhibitor, single point] |  |
| COc1cccc(C2CC(c3c(-c4ccccc4)c4cc(Cl)ccc4[nH]c3=O)=NN2S(C)(=O)=O)c1OC (configuration not stated) | inconclusive: 22.4 µM [inhibitor, single point] |  |
| CCCCC(c1nnnn1CC1CCCO1)N1CCN(Cc2ccccc2)CC1 (configuration not stated) |  | inactive: 0.18% |
| CC1(C)Cc2nc3sc4c(SCC(=O)NCc5ccco5)ncnc4c3cc2CO1 |  | inactive: 0% |
| O=C(NCCOc1ccccc1Cl)c1cc(F)c(F)cc1Cl | inconclusive: 0.562 µM [inhibitor, full curve] |  |
| CCn1c(SC(C)C)nnc1-c1cc(-c2ccccc2)sc1N | inconclusive: 35.5 µM [inhibitor, single point] |  |
| CCCCn1c2c(c(=N)c3c1CCC3)CCC2 | inconclusive: 14.1 µM [inhibitor, single point] |  |
| CN(C)c1ccc(/C=N/N=C2/NC(=O)/C(=C/c3ccc([N+](=O)[O-])cc3)S2)cc1 |  | inactive: -9.88% |
| Cc1ncsc1C(=O)O | inconclusive: 11.2 µM [inhibitor, partial curve, poor fit] |  |
| COC(=O)[C@]1(Cc2ccccc2)N[C@H](c2ccc(-c3ccccc3)cc2)[C@@H]2C(=O)N(C)C(=O)[C@@H]21 | inconclusive: 35.5 µM [inhibitor, partial curve, poor fit] |  |
| COc1ccc(CN2C(=O)C(CC(=O)NCc3cccc4ccccc34)CC(C(=O)N(C(C)C)C(C)C)=C2C)cc1 (configuration not stated) | inconclusive: 20 µM [inhibitor, single point] |  |
